This note sets out measurements from the supplement of paper PMC3334620.

Over roughly 33,000 sequences, “E-score (-0.5 to 0.5)” has its median near -0.032; the highest 2% begin near 0.36. This is one part of the list.

The target of the test is T1, Sko1 (UniProt Q02100).
T1 sequence: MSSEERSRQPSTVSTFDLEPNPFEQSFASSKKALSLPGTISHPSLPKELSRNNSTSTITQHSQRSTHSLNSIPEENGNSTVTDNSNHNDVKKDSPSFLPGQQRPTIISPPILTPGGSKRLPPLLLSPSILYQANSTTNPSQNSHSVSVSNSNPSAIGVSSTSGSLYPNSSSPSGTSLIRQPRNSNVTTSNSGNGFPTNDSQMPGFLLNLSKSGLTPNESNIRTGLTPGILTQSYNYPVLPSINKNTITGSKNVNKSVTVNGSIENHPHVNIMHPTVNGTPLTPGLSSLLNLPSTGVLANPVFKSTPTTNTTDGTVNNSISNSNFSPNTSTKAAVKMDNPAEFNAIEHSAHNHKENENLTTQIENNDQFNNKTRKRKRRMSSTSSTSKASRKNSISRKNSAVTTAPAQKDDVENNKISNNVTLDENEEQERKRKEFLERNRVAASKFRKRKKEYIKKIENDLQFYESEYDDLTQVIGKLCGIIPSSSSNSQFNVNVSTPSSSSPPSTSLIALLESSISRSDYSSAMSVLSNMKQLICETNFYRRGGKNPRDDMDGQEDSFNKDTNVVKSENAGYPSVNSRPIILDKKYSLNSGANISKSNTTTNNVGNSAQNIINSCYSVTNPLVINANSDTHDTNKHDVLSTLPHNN
The test can be described thus: PBM E-score (8-mer binding enrichment) (E-score (-0.5 to 0.5)); higher = stronger / more preferred TF binding; most listed sequences are background and not binding sites. The note with it: protein concentration: 200 nM; construct: GST-full length. The procedure, abridged: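 Detection of bound protein used fluorescent anti-GST, with scans normalised by masliner. The proteins were GST-tagged yeast transcription factors applied at about 100-200 nM to universal all-10-mer Agilent arrays made double-stranded by primer extension. Each ungapped eight-base word, pooled with its reverse complement, was scored with an E-score from the Universal PBM Analysis Suite.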
Turning to GATGGAAA, the “PBM E-score” value was determined as 0.0551. For ACCAAGTA the value was 0.0459; for ACGGCAGG, -0.297; for ATTTACTA, 0.117. The figure for GTATATGA is 0.269; for GGGTTCAA it is -0.166. The figure for ATTTTTCG is 0.164; for CCGGATAA it is -0.0431; for GTTGGAGA it is -0.00906. On to CTCTCCCA, for which the “PBM E-score” value is -0.407.

For ACGATAGG, the “PBM E-score” value is -0.198. Consider AGAGTAAC, for which the “PBM E-score” value is -0.0287.

Take GACGTTAA: the “PBM E-score” value worked out at 0.368. Take TCAACTAA: the “PBM E-score” value is 0.138.

In the case of GTCTGGCA, the “PBM E-score” value is -0.208. Consider AACTTAGG, for which the “PBM E-score” value stood at 0.00099.

Turning to GGGTGCGA, the “PBM E-score” value was -0.23. As for TGTTCAAA, the “PBM E-score” value was determined as 0.0209. Consider AGGTGTCA, for which the “PBM E-score” value came out at 0.0726. The figure for CCGAAAAA is 0.128. For CCATACAA the value was 0.0328. The figure for GTTCAGGA is -0.0181. Take AAAAATCA: the “PBM E-score” value was 0.0972. For GAGACGAC the value was -0.0563. In the case of CAAATTAC, the “PBM E-score” value was 0.258. For CTTAGGAA the value was 0.0777. The figure for ACCCGAAG is -0.229; for CACTTTCC it is -0.0386; for GCGTTAGC it is 0.0592. ACCGTAGT: the “PBM E-score” value was -0.122. The figure for TGTGTAAA is 0.266; for ATGAATTC it is 0.0634; for AAACCCAA it is 0.026.

In the case of CAATCACA, the “PBM E-score” value amounted to 0.153. As for AACAATCA, the “PBM E-score” value worked out at 0.297. The figure for ATCATAGG is 0.18. For AGAGGCCA, the “PBM E-score” value was -0.195. The figure for GACTCCTC is -0.315; for AGTGCGAG it is -0.108; for TCGTCTAA it is 0.101. For CCGGGATC the value was -0.193; for ATCGTGGG, 0.114; for TGTCCCAA, -0.00701. In the case of AGCCCGAT, the “PBM E-score” value amounted to 0.0246. For ATAGTCTG, the “PBM E-score” value was -0.0553. Turning to CGTATCTC, the “PBM E-score” value was 0.26. For AGCGGTAA, the “PBM E-score” value is -0.112. As for AGTTAGCA, the “PBM E-score” value was found to be 0.0512.

Turning to ACTATACG, the “PBM E-score” value was determined as 0.27.

Turning to ATAGGCAC, the “PBM E-score” value amounted to 0.0356. The figure for ACAATAGG is -0.097. ACCAGAGG: the “PBM E-score” value is -0.225. The figure for AATGCATA is 0.0709. As for AATAAAGA, the “PBM E-score” value amounted to 0.201.

As to CACAGCCC, the “PBM E-score” value was -0.316. The figure for CAAACCGA is -0.0133. For GTGAAGGA, the “PBM E-score” value is -0.0285. For ATGAACAC, the “PBM E-score” value was determined as 0.0929.

With ACGAAAAT, the “PBM E-score” value came out at 0.331. On to AAAAATTT, for which the “PBM E-score” value turned out to be 0.177. For GCAAAGAA the value was -0.123; for ATACGATG, 0.275. For AGGGCAAG the value was -0.141; for GCTTCGCA, -0.0198; for AACAGGGG, -0.349. For GAGCGAGC the value was 0.0109; for ACGTATGG, 0.441; for ACTTCAAG, 0.15.

Consider ACTGTCTA, for which the “PBM E-score” value was determined as 0.161. Turning to ACTCTCAG, the “PBM E-score” value is -0.00339. The figure for GACAAGCC is -0.128; for ACCCTGCT it is -0.326; for CGTCGACA it is 0.205. For CATACAAG the value was 0.0813. With GGAATTAA, the “PBM E-score” value is 0.2.

In the case of GGTCAGAA, the “PBM E-score” value is -0.206. The figure for CCGGAAAC is -0.069.

Consider CCATGAGC, for which the “PBM E-score” value is -0.178. The figure for CTCCGAAC is -0.214; for ATGTGTTG it is 0.203; for AACCCGCA it is -0.194. The figure for AGGCTTGG is -0.168.

Consider GAGTCGAC, for which the “PBM E-score” value is -0.0428.

As to ATAAATCG, the “PBM E-score” value was 0.119. Take AGAAAGTC: the “PBM E-score” value is -0.163. As for ACATAGTC, the “PBM E-score” value is 0.0801. ACCTGTGC: the “PBM E-score” value is -0.144.

In the case of GGTTGCTA, the “PBM E-score” value was -0.024.

As to CGAGTGAG, the “PBM E-score” value was -0.158. For GTCTTCGA the value was -0.0774; for AAGAGTGA, 0.0204; for TCTCCAGA, -0.2. As for GCGTCATA, the “PBM E-score” value stood at 0.481. The figure for AGAACACT is 0.0611.
